± gives the standard deviation of the averaged measurements. The list shows a part of the results.
Test system: PfAP2-G AP2 domain (GST-tagged)
Test: gcPBM binding intensity (ln(normalized median fluorescence intensity)); higher = stronger DNA binding
How it was run: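 Each value is the highest Masliner-normalised natural-log median intensity across replicate spots of either orientation of a probe. The probes were primer-extended double-stranded 36-bp intergenic genomic sequences on an Agilent 4 × 180k array, alongside negative controls, exposed for 1 h to GST-tagged P. falciparum DNA-binding domains expressed in E. coli. Bound protein was picked up with Alexa488 anti-GST antibody and scanned at 488 nm.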

| Sequence | gcPBM binding intensity (ln) |
| --- | --- |
| TTTGTTGGTATGGTTACACACATTTAGGAAATAAAA [CACACA_site1411] | 10.4 ± 0.34 |
| AAAATAATTCAATGTAGTACAATACAAATTGAGAGA [XGTACX_site5991] | 11.5 ± 1 |
| AAAATTATACACACACGTACATATAAATAGAAATAT [XGTACX_site1753] | 11.3 ± 0.89 |
| AGTATTTTGTTTATCACACATATTGGAATTTTCAAT [CACACA_site4686] | 10.03 ± 0.028 |
| ATATTAAAAAAATATAAACACACAAAAAAAAAATAT [CACACA_site8283] | 9.98 ± 0.014 |
| TATTCAAAGAAAAACTGTACGTGTAGCAAACGTCAT [XGTACX_site7713] | 11.5 ± 0.83 |
| GGTGTTTTTCACAGATGTACACAAATAAAAAAGAAA [XGTACX_site4454] | 11.6 ± 0.71 |
| TATATATAAAAAAAAAGTACATATAATATAATATTT [XGTACX_site7902] | 11.5 ± 1 |
| AAATGGACAGTATAAAAATGGAGAATATAAAAATTT [CACACA_negctrl_site889] | 10.3 ± 0.36 |
| CCTTTTTATTTTTGTAGTACTACATATACATATCTG [XGTACX_site7791] | 11.5 ± 0.88 |
| AAAAAAAAAAAAAATAAATAAATAAATAAATATATA [GTGCAC_negctrl_site382] | 9.5 ± 0.37 |
| TTTTTATAACAGCTTAGTACATATAAGAATTCTTGC [XGTACX_site5890] | 10.7 ± 0.54 |
| GACCCCATATACATATGTACATACATAATATATATA [XGTACX_site1817] | 11.1 ± 0.73 |
| ATATATATTTTAATTACACACAAAAAAAAAAAAAAA [CACACA_site4778] | 9.81 ± 0.47 |
| CTAATTGTTATTTTGTGTACTTATCATTCGAAATAT [XGTACX_site7963] | 11.6 ± 0.96 |
| AAAAAACAAATAAGTAAACACACATATATAATATAT [CACACA_site8830] | 9.975 ± 0.035 |
| TAGATGTAAGTACATACACACATATATAAATAAATA [CACACA_site8528] | 11.4 ± 0.98 |
| GTCATATATTTATGTACACACATATATATATTTATA [CACACA_site4911] | 11.3 ± 0.91 |
| AAAAAAAAAAAAAATACACACATATTTTATAGGGGA [CACACA_site3261] | 10 ± 0.18 |
| TATTTTTTGAAAAGTTCACACATCCAACTCGAGTTG [CACACA_site4412] | 10.5 ± 0.3 |
| AAAATAATGAAATGAAAAAAAAAAATTTAGATTCTA [CACACA_negctrl_site1385] | 9.3 ± 0.37 |
| TTATATATTTTTAGGTGTACTTTTTTTTTTTTTTTT [XGTACX_site8164] | 11.7 ± 0.91 |
| TATGAATATCTATACACACACATATAAATACACGCT [CACACA_site6853] | 10.3 ± 0.28 |

| Sequence | gcPBM binding intensity (ln) |
| --- | --- |
| AGGATATATATATTCACACACACATGGAAATATATA [CACACA_site383] | 9.91 ± 0.028 |
| ATATATATTTTATATTGTACTTATTATTTTTAGGGC [XGTACX_site723] | 11.4 ± 0.81 |
| TATTTTGCAAAATGTGCATGTTGTGTATTATGTGAC [TGCATGCA_site59] | 10.3 ± 0.21 |
| CATATGTTATATGTAGTGCATTACTATAGGATTTAT [GTGCAC_site9860] | 10.4 ± 0.28 |
| TCATTTATTTTTCTTTGTACACAAAAGTTTTTATGT [XGTACX_site690] | 11.4 ± 0.9 |
| GTATAATTGGAAATTACACACCTTAGAATGTAACAT [CACACA_site4059] | 9.97 ± 0.014 |
| ATTATAATATATATATGTACATATATATATAATACT [XGTACX_site5092] | 11.2 ± 0.67 |
| TATAATATACTATGTGGTACATATATATATTTATAG [XGTACX_site4556] | 11.2 ± 0.85 |
| ATATATAATATTGGTGGTACAAGGGTATTTTATATT [XGTACX_site8215] | 11.3 ± 0.79 |
| TCTTTAGCTTCTTCTTTTTTTTTTTTTTTTTTTTTT [XGTACX_negctrl_site518] | 10.8 ± 0.38 |
| ATATATATATATATATGTACATAAACATATATATAT [XGTACX_site1064] | 11.5 ± 1.1 |
| TGGTATGCAATATTGGTGCGTATATATTTTAAAGGG | 10.3 ± 0.16 |
| TATTTTTAATTTTTTAATGGTTTAATATTTTTATAT [CACACA_negctrl_site1186] | 9.69 ± 0.13 |
| TATTCTAAGATAAGTGGTACTTATATATAATATATA [XGTACX_site8316] | 11 ± 0.64 |
| AATATATGGTTTCTTGATATTAAATTCAATTTAATG [CACACA_negctrl_site69] | 9.995 ± 0.035 |
| TGAAAAATATAAGGTTGTACTTACATCGGGAATAAT [XGTACX_site4701] | 11.3 ± 0.83 |
| AATTATGTGTGTCAATGTACACGATTTACATAATAT [XGTACX_site5150] | 11.3 ± 0.93 |
| ATCCGTGGGTGAAATACACACATGATAATGTGAATG [CACACA_site4662] | 9.995 ± 0.064 |
| ATAAATGAACAAGTGGCACACACACCGTATAACTAA [CACACA_site9047] | 10.3 ± 0.21 |
| TATATCTTAATATTTACACACATGCGCACCCATAAA [CACACA_site5349] | 10.6 ± 0.52 |
| AAAAAAAAAAAAAAAAGTACATATAATAAATAATGA [XGTACX_site7931] | 11.6 ± 1 |
| TAAGTATATATATTTACACACATTTGTTTTTTTTTA [CACACA_site3784] | 9.79 ± 0.028 |
| TTTTAAATACTTTATTGTACATTATATATATATATA [XGTACX_site7021] | 11 ± 0.59 |

| Sequence | gcPBM binding intensity (ln) |
| --- | --- |
| AATCTTTGTAATAAAAGTACATTAATTTTATTAATA [XGTACX_site8325] | 11.3 ± 1 |
| ACACATACAACGTGGTGTACAAATAATTATAATCAA [XGTACX_site2287] | 11.1 ± 0.4 |
| GTTATAATTGAACTAGTGCATAAATATATTTTAATT [GTGCAC_site9851] | 10.3 ± 0.16 |
| AATTCTGGCAAAATAACACACACATATATTTTATAT [CACACA_site9064] | 10 ± 0.028 |
| TATCTTTTTTTTAATACACACAAATATATGAAAGTA [CACACA_site4161] | 10.2 ± 0.18 |
| ATGTGTATATGTGTGGGTACTTAATTTTTTTCTTTA [XGTACX_site5351] | 11.2 ± 0.6 |
| CGTATTATTATATAAACACACAAGGGGGCATGTATA [CACACA_site745] | 11.2 ± 0.71 |
| ATATAAACACTGAATGCATGCACATATATATATATA [TGCATGCA_site940] | 10.2 ± 0.26 |
| GGGGGGGGAGGGTGAATACACACGTAATAATCATAA [CACACA_site1716] | 11.6 ± 0.94 |
| TTTTTTTTTACTAACTGTACTAAAGAAAAAAAAGGG [XGTACX_site3519] | 11.4 ± 0.79 |
| ATAAAGGAATTTTATACACACAACATATATATATAT [CACACA_site2861] | 10.1 ± 0.38 |
| TTTCGTAAACTTTATGCACACACATATACATATTTC [CACACA_site8146] | 10.2 ± 0.16 |
| ATTTGTATATACATATGTACACATGTAGGCTCATAA [XGTACX_site1709] | 11.4 ± 0.84 |
| TATAATAATATTTACACACGCATATGTTATATATAT [CACACA_site1477] | 9.93 ± 0.071 |
| TACAAATGCGTATGTCAATATATGGAGAAATAAATA [TGCATGCA_negctrl_site290] | 10.1 ± 0.16 |
| TGTATATGGTTTGTGCAAAAATTTATTAATGTGTAA [TGCATGCA_negctrl_site374] | 10.07 ± 0.028 |
| TTTGAATACTGAATGGTGCAAATTGTTCTCCCCATG | 10.3 ± 0.23 |
| AGTATAACTTTTGCGCGTACACACATTTATCCTCTT [XGTACX_site429] | 11.6 ± 0.72 |
| TATATTAAAATAATCACACACATCAATTAATGGTAA [CACACA_site1234] | 9.81 ± 0.014 |
| TAAATAAAAGATACGAGTACGTATGATGTTAACCTC [XGTACX_site8840] | 11.2 ± 0.8 |
| GAACGAAATAAGTGTGTGCACATGTAACCACAAATC [GTGCAC_site9829] | 10.9 ± 0.34 |
| CAATATTTTCATAGATGTACTTTGGACTTATTATAT [XGTACX_site4849] | 11.3 ± 0.84 |
| GTATATAGTATGTAGAGTACTAATTTCCATATGTTC [XGTACX_site7816] | 10.9 ± 0.41 |

| Sequence | gcPBM binding intensity (ln) |
| --- | --- |
| ATTTATATATAGGTGTGTCCACAAATAGTATGTAAA [XGTACX_site2916] | 11.5 ± 0.88 |
| GATCAAATAGAAAATACATGCAATGTGTGAAATAAC [TGCATGCA_site835] | 10.015 ± 0.007 |
| TTTCAAATGGAATGTGTGCACATAAATGTAAATAAA | 10.5 ± 0.25 |
| AAAAAAAAAATTTACTGTACACATTTGGGATACTCA [XGTACX_site5191] | 11.7 ± 0.76 |
| TTTAAAATAACCAAAAACAAAAAGAAACACAAATGT [GTGCAC_negctrl_site705] | 10.28 ± 0.092 |
| ATGGTTTTCAGAAAAACATGCATACAATAATAAAAA [TGCATGCA_site815] | 10.1 ± 0.085 |
| CTTATTTAATGTATCACACACGAGAATAAAAAATAA [CACACA_site3020] | 10.2 ± 0.21 |
| TATAAGTTGATATATACACACATATATAAATATGTA [CACACA_site7526] | 9.89 ± 0.11 |
| TATTTATAAAAATATACACACATACAAATATGCATA [CACACA_site4555] | 9.815 ± 0.007 |
| GAAATTAAAAAATTTATGCACACTTTAAAAAAAAAA [CACACA_site3769] | 10.1 ± 0.2 |
| ATATATATATATAATTGTACATTTTTATGTTTTATA [XGTACX_site4560] | 10.8 ± 0.62 |
| AAACTTTTTTTAAAAACACACATATAGATTTATATA [CACACA_site7842] | 9.88 ± 0.014 |
| TATTTTTAAACAAAACTGTATTTATTTTTTAAAATT [CACACA_negctrl_site1449] | 9.725 ± 0.049 |
| TTTTGTTATTTTTGTATGCACTACATATTATTATAT | 10.4 ± 0.18 |
| TAGTTTTTTATATATTGTACAAATGATATATTATAT [XGTACX_site1002] | 10.9 ± 0.57 |
| AATGATTTTCAATCGAAATGAAACTTAGAAGATATA [CACACA_negctrl_site1475] | 9.755 ± 0.021 |
| TTTTAAACAGGACACACACACATATAGATTTATATA [CACACA_site6560] | 10.4 ± 0.34 |
| ATATGTAGTTTTTATTGTACGTGTAGAAGAAATAAT [XGTACX_site6608] | 11.5 ± 1.2 |
| TTCATTAAAATTATTACACACAGTTCTTCAACCAAA [CACACA_site3504] | 10 ± 0.14 |
| AAGGTGGAAACAATTACACACACACTAAAAAAAAAA [CACACA_site7493] | 10.3 ± 0.29 |

Source: the supplement of paper PMC11417369
